Several values for one entry are separate records, joined by “and”; a condition that tells them apart may be missing. Identical values can stand only once. The list shows a part of the results. The main result of the screen is listed elsewhere. These columns were measured beside it and carry no call. The list favours compounds with an active or inconclusive main result.

This assay has as its target Chromobox protein homolog 7 (Homo sapiens) (UniProt O95931). In words: blockers of CBX7 binding to H3K27me3 peptide – biochemical, AlphaScreen, primary screen (AID 1224903). To be noted: AlphaScreen His6-CBX7 / biotin-H3K27me3 peptide binding; measured here: z-score of CBX7 signal; stronger effect = lower value. (In general: In Alpha technology, singlet oxygen from a donor bead excites a nearby acceptor bead.)
Chain of UniProt O95931 (O95931 whole entry, looked up): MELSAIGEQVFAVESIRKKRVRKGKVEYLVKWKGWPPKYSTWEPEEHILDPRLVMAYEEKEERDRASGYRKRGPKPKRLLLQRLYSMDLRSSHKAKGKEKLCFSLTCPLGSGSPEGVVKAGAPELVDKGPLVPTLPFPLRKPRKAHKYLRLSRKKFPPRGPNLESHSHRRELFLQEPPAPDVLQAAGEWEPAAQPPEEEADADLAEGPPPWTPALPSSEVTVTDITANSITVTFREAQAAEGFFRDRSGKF
In turn, `COc1ccc(CN2C(=O)c3cccnc3C2O)cc1` (stereo not drawn) yielded a z-score of -26.8.

With `Cc1nc2ccccn2c1-c1csc(Nc2ccc(N(C)C)cc2)n1`, the z-score was -18.6.

In turn, `CCOc1ccc(N2CCc3c2nc2ccc(Br)cc2c3N)cc1` yielded a z-score of -10.6.

Turning to `CN(C)S(=O)(=O)c1ccc(C(=O)Nc2nnc(-c3cccs3)o2)cc1`, the z-score was -13.2.

As to `COC(=O)c1c[nH]n2c(NC3CCCCCC3)c(-c3ccc(C)cc3)nc12`, the z-score is -11.3.

In turn, `Cc1ccc2nc(-c3ccccn3)c(Nc3ccc4c(c3)OCO4)n2c1` yielded a z-score of -20.9.

`CC1CCCN(S(=O)(=O)c2ccc(C(=O)Nc3nc(-c4ccccn4)cs3)cc2)C1` (stereo not drawn) returned a z-score of -25.2.

`CCCc1cc(-c2nc(-c3cccc([N+](=O)[O-])c3)cs2)ccn1` came in with a z-score of -6.04.

Molecule `COc1ccccc1-n1c(-c2ccc(C)cc2)cc2c1CC(C)(C)CC2=O` came in with a z-score of -6.77.

On to `O=S(=O)(c1ccccc1)c1nc(-c2ccccc2F)oc1N1CCCCC1`, for which the z-score is -4.85.

As for `O=C(Nc1nnc(-c2ccc(Cl)s2)o1)c1ccc(S(=O)(=O)N2CCCCC2)cc1`, the z-score was -9.49.

On to `CCCCn1cnc2cc(NCc3cccc(Br)c3)ccc21`, for which the z-score is -21.5.

Take `c1ccc2cc(-c3csc(Nc4ccc5c(c4)OCO5)n3)ccc2c1`: the z-score was -8.31 and -7.88.

`N#Cc1nc(COc2ccccc2F)oc1NCCc1ccccc1`: the z-score was -9.25.

`CCOC(=O)c1cnc2ccc(C)cc2c1Nc1ccc(N2CCCCC2)cc1` showed a z-score of -7.8.

Molecule `CCn1cnc2cc(NCc3cccc(Br)c3)ccc21` had a z-score of -15.9.

`O=C(CN1CCCCC1)Nc1c2c(nc3c1CCC3)CCCC2` returned a z-score of -7.41.

For `CCNc1ccc(Br)cc1-c1nc2ccccc2n(CC)c1=O`, the z-score is -10.5.

As for `Cc1ccc2c(c1)N(CCC(=O)NCc1ccccn1)C(=O)CO2`, the z-score is -8.9.

In turn, `CN(C1CCCCC1)S(=O)(=O)c1ccc(C(=O)Nc2nnc(C3CC3)o2)cc1` had a z-score of -1.69.

As for `Cc1ccn2c(Nc3ccc(F)cc3)c(-c3ccccn3)nc2c1`, the z-score is -26.7.

As to `COC(=O)c1c[nH]n2c(NC3CCC(C)CC3)c(-c3ccc(Cl)cc3)nc12` (stereo not drawn), the z-score was -0.754.

Molecule `COc1ccc(CN2C(=O)c3cccnc3C2Nc2cc(Cl)c(OC)cc2OC)cc1` (stereo not drawn) showed a z-score of -11.9.

On to `COc1ccc(-n2ccnc2SCC(=O)Nc2ccc(C)c(Cl)c2)cc1`, for which the z-score is -0.701.

`c1ccc(-c2nc(-c3cccnc3)[nH]c2-c2ccccc2)cc1` showed a z-score of -0.688.

In turn, `CC(=O)N1CCN(CC(O)COc2ccc(Br)cc2)CC1` (stereo not drawn) yielded a z-score of -1.11.

In turn, `O=C(CN1CCCCCC1)Nc1c2c(nc3c1CCC3)CCCC2` yielded a z-score of -12.4.

`COCCN(CCOC)S(=O)(=O)c1ccc(C(=O)Nc2nnc(-c3ccccc3Cl)o2)cc1` came in with a z-score of -3.23.

For `COc1ccc(-c2nc(-c3ccccc3)c(-c3ccccc3)[nH]2)c(OC)c1`, the z-score is -15.7.

On to `CCOC(=O)c1ccc(NC2c3ncccc3C(=O)N2Cc2ccc(F)cc2)cc1` (stereo not drawn), for which the z-score was -7.13.

Molecule `O=C(CN1C(=O)COc2ccc(Cl)cc21)NCc1ccc(F)cc1` registered a z-score of -1.18.

As for `CCOc1ccc(CN(C)CCc2ccccn2)cc1`, the z-score was -4.15.

Take `O=C(CCCN1C(=O)c2cccnc2C1=O)N1CCN(c2ccccc2)CC1`: the z-score was -4.9.

`Cc1cc(NC(=O)CSc2nnc(CNC(=O)COc3ccc(Cl)cc3)o2)no1` returned a z-score of -12.2.

`CCN(c1ccccc1)S(=O)(=O)c1ccc(C(=O)Nc2nnc(C)o2)cc1` yielded a z-score of -24.7.

Turning to `CC(C)c1ccc2oc(-c3ccc(NC(=O)c4ncn[nH]4)cc3)nc2c1`, the z-score is -25.7.

For the molecule `OC1(c2ccc3c(c2)c2c4n3CCN(Cc3ccccc3)C4CCC2)CCCC1` (stereo not drawn), the z-score was -7.12.

`COc1ccc(CN(C)CCc2ccccn2)cc1OC`: the z-score is -4.16.

`CCOc1ccc2nc(N3CCCC(C(=O)N4CCN(C)CC4)C3)sc2c1` (stereo not drawn) registered a z-score of -11.6.

In turn, `COC(=O)c1c[nH]n2c(NC3CCCCCC3)c(-c3ccc(F)cc3)nc12` returned a z-score of -10.9.

For `Cc1cccc2nc(-c3ccccn3)c(Nc3ccc(C(C)C)cc3)n12`, the z-score is -26.3.

In the case of `COC(=O)c1c[nH]n2c(NC3CCC(C)CC3)c(-c3cccc(F)c3)nc12` (stereo not drawn), the z-score was -0.752.

`COCc1cc(CN2CCC(C)CC2)c(O)c2ncccc12` came in with a z-score of -26.5.

Turning to `COc1ccccc1-n1cnc2cc(NCc3ccc(N(C)C)cc3)ccc21`, the z-score was -33.5.

In turn, `Oc1ccc(-c2nc(-c3ccccc3)c(-c3ccc(Br)cc3)[nH]2)cc1` showed a z-score of -0.541.

`Cc1ccc(OCC(O)Cn2cnc3cc(C)c(C)cc32)cc1` (stereo not drawn): the z-score is -17.5.

In the case of `COc1ccc(S(=O)(=O)NCCc2c(C)[nH]c3ccc(C)cc23)cc1`, the z-score is -0.543.

In the case of `COc1ccc(NC(=O)c2c(NCc3cccnc3)sc3c2CCCC3)c(OC)c1`, the z-score is -13.7.

The molecule `CCOc1ccc(NC2c3ncccc3C(=O)N2Cc2ccc(F)cc2)cc1` (stereo not drawn) yielded a z-score of -6.47.

In the case of `c1ccc(C(c2ccccc2)c2nc(-c3cccnc3)no2)cc1`, the z-score is -11.7.

As to `COc1ccc(-c2nc(-c3ccccc3)c(-c3ccc(F)cc3)[nH]2)cc1OC`, the z-score is -15.3.

As to `CCc1nnc(NC(=O)c2ccc(S(=O)(=O)N(CC(C)C)CC(C)C)cc2)o1`, the z-score is -1.56.

With `N#Cc1nc(COc2ccc(F)cc2)oc1N1CCCCCC1`, the z-score is -3.15.

Take `CCOc1ccc(NCc2nc3ccccc3n2CCOc2ccccc2)cc1`: the z-score is -14.8.

On to `O=C(CCN1C(=O)c2cccnc2C1=O)Nc1cccc(F)c1`, for which the z-score is -9.38.

Consider `O=C(Nc1nnc(-c2cccs2)o1)c1ccc(S(=O)(=O)N2CCCC2)cc1`, for which the z-score is -14.6.

On to `O=C(CSc1n[nH]c(-c2ccncc2)n1)c1ccc(Br)cc1`, for which the z-score was -1.56.

Molecule `CCC(=O)Nc1nc(C)c(-c2csc(Nc3ccc(C(=O)O)cc3)n2)s1` registered a z-score of -1.03.

The molecule `Oc1c(C(Nc2ccccn2)c2ccccc2)ccc2cccnc12` (stereo not drawn) displayed a z-score of -7.07.

As for `CCN(CC)c1ccc(Nc2nc(-c3c(C)nc4cc(C)ccn34)cs2)cc1`, the z-score was -21.4.

In turn, `COc1ccc(-c2nnc(NC(=O)c3ccc(OC)c(OC)c3)o2)cc1` returned a z-score of -15.8.

In turn, `CN(c1ccccc1)S(=O)(=O)c1ccc(C(=O)Nc2nc(-c3ccccn3)cs2)cc1` yielded a z-score of -6.92.

The molecule `Cc1onc(-c2c(F)cccc2Cl)c1C(=O)NCC1COc2ccccc2O1` (stereo not drawn) showed a z-score of -0.594.

The molecule `CCOC(=O)c1cnc2ccc(C)cc2c1Nc1ccc(N(C)C)cc1` came in with a z-score of -7.11.

The molecule `COc1ccc(OC)c(-c2nc(-c3ccccc3)c(-c3ccccc3)[nH]2)c1` displayed a z-score of -14.7.

In the case of `COc1ccc(C(CC(=O)c2ccco2)Sc2cccc3cccnc23)cc1OC` (stereo not drawn), the z-score is -3.93.

The molecule `O=C(NCc1ccc2c(c1)OCO2)[C@H](Cc1ccccc1)N1Cc2ccccc2C1=O` gave a z-score of -1.57.

In turn, `CCOc1cc2c(cc1OCC)C1C(C(=O)Nc3cc(C)ccn3)c3ccccc3C(=O)N1CC2` (stereo not drawn) had a z-score of -6.48.

The values above are taken from PubChem BioAssay AID1224903 (Bradner/Qi Labs at DFCI, 2016).
